# Test results published in PubChem BioAssay AID686979 (National Center for Advancing Translational Sciences (NCATS), 2013).
# In all, about 420,000 compounds went through this assay and about 50,000 (12%) were called active. Inconclusive results, whose numbers are uncertain, are shown with a selection of clear calls. Calls follow the shape of the dose curve; as a rule, active = well fitted inhibition curve with a large enough effect; inconclusive = small, poorly fitted or top-dose-only effect; inactive = flat fitted curve, though single readings scatter. Potencies of inconclusive entries are left out as doubtful fits.
# Experiment: qHTS for Inhibitors of human tyrosyl-DNA phosphodiesterase 1 (TDP1): qHTS in cells in presence of CPT; also: nearly all actives have a fitted effect of over 55% in size
# Conditions: chicken DT40 Tdp1-/-;hTDP1 cells + 20 nM CPT, ATP luminescence, 48 h; activity change, negative = growth inhibition: at 46.2 µM (top of the series) unless noted
# Method in brief: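 Chicken DT40 Tdp1-/- cells stably complemented with human TDP1 were seeded at 400 cells/well in medium containing 20 nM camptothecin, exposed to pin-transferred compounds, and grown at 37 °C for at least 48 hr. Viability was read as ATP luminescence.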
# % is scaled to controls: 0 for no effect and ±100 for the full control effect; potency is read from the fitted curve at half-maximal effect; tags tell the direction and shape of the fitted curve.
SMILES,Potency,"activity change, negative = growth inhibition"
CC(C)NC(=O)N(C)C[C@H]1Oc2ccc(NC(=O)Cc3ccccc3)cc2C(=O)N([C@H](C)CO)C[C@@H]1C,inactive,–
COc1ccccc1NC(=O)C1=C(C)Nc2c(C(=O)Nc3cccc(C)c3)cnn2C1c1ccccc1C (centres undefined),"inconclusive [inhibitor, single point]",–
COC(=O)c1ccc(NC(=O)C(=O)NCCc2sc3nc(-c4ccc(OC)cc4)nn3c2C)cc1,inactive,–
O=C(CCn1c(=O)c2cccn2c2cccnc21)NCc1ccc(Cl)cc1,inactive,–
Cc1ccc(-c2cc(C(=O)N(C)CC(=O)Nc3ccccc3Br)c3ccccc3n2)o1,active: 16.4 µM,–
CCOC(=O)c1ccc(NC(=O)Cn2cc(C(=O)c3cccs3)c3ccccc32)cc1,"inconclusive [inhibitor, single point]",–
CN(C)S(=O)(=O)c1ccc(Cl)c(C(=O)Nc2cccc([N+](=O)[O-])c2)c1,active: 18.4 µM,–
CN(c1ccccc1C(=O)Nc1ccc(S(=O)(=O)N2CCCCC2)cc1)S(C)(=O)=O,"inconclusive [inhibitor, partial curve]",–
CCOC(=O)C(=O)NCC(c1cccs1)S(=O)(=O)c1ccc(F)cc1 (centres undefined),inactive,–
CN(C(=O)Cn1cc([N+](=O)[O-])ccc1=O)C1CCCCC1,inactive,–
Cc1nn(C)c(C(=O)NCc2ccc(Cl)cc2)c1Cl,active: 4.11 µM,–
CCOC(=O)CSC1=C(C#N)C(c2ccc(C)cc2)C(C(=O)OC)C(=O)N1 (centres undefined),inactive,–
FC(F)(F)C(Oc1nc(Nc2ccc(Cl)cc2)nc(N2CCOCC2)n1)C(F)(F)F,"inconclusive [inhibitor, single point]",–
COc1cc(/C=N/NC(=O)COc2cccc(F)c2)ccc1OS(=O)(=O)c1ccc(C)cc1,active: 18.4 µM,–
C[C@H](CO)N1C[C@H](C)[C@@H](CN(C)S(=O)(=O)c2ccccc2)Oc2ccc(NS(=O)(=O)c3ccc(F)cc3)cc2C1=O,inactive,–
C=CCNC(=S)Nc1ccc(Cl)cc1F,inactive,–
O=C(CCN1CCOCC1)N1CCc2c([nH]c3ccccc23)C1c1cccc(Cl)c1 (centres undefined),"inconclusive [inhibitor, single point]",–
CC(NS(C)(=O)=O)C(c1cccs1)N1CCN(Cc2ccccc2)CC1 (centres undefined),"inconclusive [inhibitor, single point]",–
Cc1ccc(NC(=O)COC(=O)C2CCN(c3ccc(C(F)(F)F)cn3)CC2)cc1C,inactive,–
COc1cc2nc(Nc3ccc(C)c(C)c3)nc(N)c2cc1OC,active: 23.1 µM,–
Cc1nc2ccn(Cc3cccs3)c(=O)c2cc1C(=O)NCc1ccc(Cl)cc1,"inconclusive [inhibitor, single point]",–
Cc1ccc(NC(=O)c2sccc2SCc2cccc(C(F)(F)F)c2)cc1,active: 18.4 µM,–
CC(=O)c1ccc(N2CCN(C(=O)c3cc(-c4ccc5c(c4)OCO5)nc4ccccc34)CC2)cc1,"inconclusive [inhibitor, single point]",–

SMILES,Potency,"activity change, negative = growth inhibition"
Cc1ccc(C(=O)OCc2nnc(-c3ccc(Br)cc3)o2)cc1,inactive,–
COc1cc2[nH]c(=S)nc(NCCc3ccc(C)cc3)c2cc1OC,"inconclusive [inhibitor, partial curve]",–
C=CCNC(=S)N1CCC2CC1c1c(Cl)cccc12 (centres undefined),"inconclusive [inhibitor, single point]",–
O=Nc1nc2ncccn2c1-c1ccccc1,active: 0.092 µM,–
Cc1ccc(Nc2nc3c(S(=O)(=O)c4ccccc4)nnn3c3ccc(Cl)cc23)c(C)c1,"inconclusive [inhibitor, single point]",–
CCc1cc(C(c2ccccn2)N2CCN(C)CC2)c(NC(=O)c2ccccc2)s1 (centres undefined),"inconclusive [inhibitor, single point]",–
CC(=O)C(Sc1ccc2nnc(-c3ccc(F)cc3)n2n1)C(C)=O,–,inconclusive: -34.4% [inhibitor]
C(=C\c1ccc2ccccc2n1)/c1ccc2ccccc2n1,active: 12.6 µM,–
COC(=O)c1sc(N2C(=O)C(=O)/C(=C(/O)c3ccc(C)cc3)C2c2ccco2)nc1C (centres undefined),"inconclusive [inhibitor, single point]",–
Cc1[nH]c2ccccc2c1C(=O)c1cc([C@H](NC(=O)OC(C)(C)C)C(C)C)sc1N,"inconclusive [inhibitor, single point]",–
COc1cccc(C2=NOC(C(=O)N3CCc4ccccc4C3)C2)c1 (centres undefined),"inconclusive [inhibitor, single point]",–
CCC(NC(=O)CCc1c(C)c2cc3c4c(oc3cc2oc1=O)CCCC4)C(=O)O (centres undefined),inactive,–
CC(NC(=O)c1cc(=O)[nH]c2ccccc12)c1ccccc1 (centres undefined),"inconclusive [inhibitor, partial curve, poor fit]",–
Oc1cccc(-c2nc(-c3cccs3)c(-c3cccs3)[nH]2)c1,"inconclusive [inhibitor, single point]",–
CC(C)(C)N(Cc1ccccc1)C(=O)COC(=O)CN1C(=O)NC2(CCCC2)C1=O,"inconclusive [inhibitor, single point]",–
O=C(Nc1cccc(C(=O)N2CCOCC2)c1)C1CC1,inactive,–
CC(C)(C)NC(=O)CSc1nc2[nH]ncc2c(=O)[nH]1,inactive,–
CC1=C/C(=C(\c2cc(C)c(O)c(Br)c2)c2ccccc2S(=O)(=O)O)C=C(Br)C1=O,"inconclusive [inhibitor, partial curve, poor fit]",–
O=C(c1ccc(Br)cc1)c1cc(-c2ccccn2)c(N2CCOCC2)s1,"inconclusive [inhibitor, single point]",–
O=C(CSc1nncn1-c1ccccc1F)NC1CC1,inactive,–
COc1ccc(-c2cc(C(=O)NC3CCCC3)c3ccccc3n2)cc1,"inconclusive [inhibitor, single point]",–
CC(C)n1cc(CN2CCC(C(=O)Nc3cccc(-c4cscn4)c3)CC2)cn1,inactive,–
O=C(NCC(c1ccc2c(c1)OCO2)N1CCOCC1)C(=O)Nc1ccc(Cl)cc1 (centres undefined),"inconclusive [inhibitor, single point]",–

SMILES,Potency,"activity change, negative = growth inhibition"
COc1ccc(CNC(=O)CSCc2ccc(C)cc2)c(OC)c1,"inconclusive [inhibitor, single point]",–
Cc1c(C(=O)NCCC#N)sc(=O)n1Cc1ccc(C(=O)N(C)C)cc1,inactive,–
CCc1cc2c(cc3c(=O)n(CC(=O)NC(C)C)nc(CC)n32)s1,"inconclusive [inhibitor, single point]",–
CCOc1cc(N2CCOCC2)c(OCC)cc1NC(=O)c1cc(S(=O)(=O)N2CCOCC2)ccc1C,"inconclusive [inhibitor, single point]",–
Cc1ccc(NC(=O)c2sc3ncn(CC(=O)N4CCN(c5ccccn5)CC4)c(=O)c3c2C)cc1Cl,"inconclusive [inhibitor, partial curve, poor fit]",–
CC(C)NC(=O)N(C)C[C@H]1Oc2ccc(NS(=O)(=O)c3ccc(Cl)cc3)cc2CC(=O)N([C@@H](C)CO)C[C@@H]1C,inactive,–
CN1CC(=O)N(CC(=O)Nc2ccc(OCc3ccccc3)cc2)C1=O,inactive,–
O=C(c1ccc2c(c1)N(Cc1cccc(Cl)c1)C(=O)c1ccccc1S2(=O)=O)N1CCN(Cc2ccccc2)CC1,active: 14.6 µM,–
C/C(=N\NC(=O)c1c(Cl)c(C)nn1C)c1cccc(NC(=O)C2CCCC2)c1,"inconclusive [inhibitor, single point]",–
c1ccc2c(N3CCNCC3)nc(-c3ccc4c(c3)OCO4)nc2c1,"inconclusive [inhibitor, single point]",–
CC(=O)Nc1ccc(NC(=O)COc2ccc(Cl)cc2Cl)cc1,"inconclusive [inhibitor, partial curve]",–
Clc1cc(Br)ccc1OCCCNCc1ccccc1,active: 20.6 µM,–
O=C(CCS(=O)(=O)c1ccccc1)N1CCCc2ccccc21,"inconclusive [inhibitor, single point]",–
CCC1CCCCN1CCCNC(=O)c1sc2nc(C)cc(C)c2c1-n1cccc1 (centres undefined),"inconclusive [inhibitor, single point]",–
CCCCCCc1nc2ccccc2c(=O)n1NC(=O)c1c(O)c2c(n(CC(C)C)c1=O)CCCC2,active: 4.61 µM,–
CC(=O)C1=C(C)N=c2s/c(=C/c3ccc4c(c3)OCO4)c(=O)n2C1c1ccc(N(C)C)cc1 (centres undefined),"inconclusive [inhibitor, single point]",–
CCNc1nc(NC(C)C)nc(OCCOC(=O)Nc2ccccc2)n1,"inconclusive [inhibitor, partial curve]",–
CC1CCCC(C)N1C(=O)c1cc(-c2ccc3c(c2)OCO3)on1 (centres undefined),"inconclusive [inhibitor, single point]",–
Cc1ccc(CN2CCN(Cc3c[nH]c4ccccc34)CC2CCO)o1 (centres undefined),active: 7.31 µM,–
c1ccc(-c2cc(-c3nnc4n3N=C(c3ccc5ccccc5c3)CS4)[nH]n2)cc1,"inconclusive [inhibitor, single point]",–
CNc1ccc(/C=C\CCCO)cn1,inactive,–
COc1ccc(/C=N/NC(=O)c2cc(-c3ccccc3OC(C)C)nc3ccccc23)cc1CN1CCOCC1,"inconclusive [inhibitor, single point]",–
COc1ccc(-c2cc(C(=O)Nc3ccc(C)c(N)c3)c3ccccc3n2)cc1,"inconclusive [inhibitor, single point]",–
